How the values were obtained:
[1] = test system: C57BL6 diet induce obesity (DIO) mice; assay: Greasy (oily) coat phenotype scoring in HFD-fed mice; assay type: in vivo, mouse; details: treated animals
From the text: In addition to changes in hepatic steatosis, we regularly observed that the coats of treated animals were drier, consistent with reduction in triglycerides, as has been observed in the DGAT1 mouse knockout with dry coat (Fig 8D and 8E). Animals were scored with regards to their oily coat phenotype with +++ representing an oily coat and ++ and + progressively drier phenotype.

[2] = test system: C57BL6 diet induce obesity (DIO) mice; assay: Liver morphology and histological scoring of hepatic steatosis in HFD-fed mice; details: for mean percentage of steatosis / steatosis score: 10mg/kg I.P daily for 12 days; for steatosis score: grades ≤ 5%:0, 5–33%:1, 33–66%:2, 66–100%:3, sham 3.0
[3] = test system: C57BL6 diet induce obesity (DIO) mice; assay: Automated quantitative histomorphometric steatosis scoring of liver sections; assay type: in vivo, mouse; details: day 6, sham = 1.0
From the text: We then used an Aperio ScanScope slide scanner to scan H&E stained slides for image analysis and quantification of macrovesicular and microvesicular steatosis. […] This quantitative analysis can be used along-side comprehensive manual histological scoring to measure changes in the steatotic phenotype including changes in macrosteatosis and microsteatosis, lipid droplet size, zonal lipid distribution, and lipid droplet count.

| SMILES | coat appearance (oily coat phenotype) [1] | pattern of steatosis ([2]; 60%-fat fed DIO mice, 12 days of treatment) | mean percentage of steatosis ([2]; HFD-fed mice) | steatosis score ([2]; HFD-fed mice) | steatosis score, standard histological scoring, time-course ([2]; HFD-fed mice, 10 or 25mg/kg IP, day 0, 3, 6 and 9) | steatotic phenotype score, automated image analysis ([3]; 10 mg/kg IP) | steatotic phenotype score, automated image analysis ([3]; 25mg/kg IP) |
| --- | --- | --- | --- | --- | --- | --- | --- |
| COC(=O)c1ccc(NC(=O)c2cc(C(C)(C)C)ccc2O)c(Cl)c1 [Compound 500199, Methyl 4-[(5-tert-butyl-2-hydroxybenzene)amido]-3-chlorobenzoate] | changes in coat appearance | almost completely cleared of steatosis | 19% | 1 | time and dose dependent improvement in steatosis score | 0.57 ± 0.19 | 0.13 ± 0.17 |
| CC(C)(C)c1ccc(O)c(C(=O)Nc2ccc(C(=O)O)cc2Cl)c1 [Compound 500200, 4-[(5-tert-butyl-2-hydroxybenzene)amido]-3-chlorobenzoic acid] |  |  | 28% | 1.25 |  |  |  |
| O=C(Nc1ccc(Br)cc1Cl)c1cc(Cl)ccc1O [Compound 500832, N-(4-Bromo-2-chlorophenyl)-5-chloro-2-hydroxybenzamide] | changes in coat appearance |  |  | 2.75 |  |  |  |
| CC(C)(C)c1ccc(O)c(C(=O)Nc2ccc(C(=O)O)cc2C(F)(F)F)c1 [Compound 500873, 4-[(5-tert-butyl-2-hydroxy)amido]-3-(trifluoromethyl)benzoic acid] |  |  | 28% | 1.25 |  |  |  |
| COC(=O)c1ccc(NC(=O)c2cccc(C(C)(C)C)c2O)c(Cl)c1 [Compound 600489, Methyl 4-(3-tert-butyl-2-hydroxybenzamido)-3-chlorobenzoate] |  |  | 24% | 1.25 |  |  |  |
| CC(C)(C)c1ccc(O)c(C(=O)Nc2cc(C(=O)O)ccc2Cl)c1 [Compound 600494, 3-{[2-Hydroxy-5-(tert-butyl)benzene]amido}-4chloro-benzoic acid] |  |  | 25% | 1.25 |  |  |  |
| COC(=O)c1ccc(NC(=O)c2cc(C(F)(F)F)ccc2O)c(Br)c1 [Compound 600653, Methyl 4-(2-hydroxy-5-[trifluoromethyl]benzamido)-3-bromobenzoate] |  |  |  | 1.75 |  |  |  |
| O=C(Nc1ccc([N+](=O)[O-])cc1Cl)c1cc(Cl)ccc1O [Niclosamide] | changes in coat appearance |  | 45% | 2.0 |  |  |  |
